The text below walks through data of patent publication US11618753B2 (priority 2018, dated 2023).

Counter-ions that a name gives are not always drawn.

For this experiment, the system named is MLKL phosphorylation, HT29-L23 human colorectal adenocarcinoma cells. Nature of the experiment: cells. The following applies: read-out: pMLKL HCS Cell Assay (IC50, uM).
For orientation: IC50 means the concentration that gives 50% inhibition. Consider `Cc1ncc(-c2cc(C(F)(F)F)c3c(N)ncnn23)cc1C(=O)N[C@@H]1CN(C(=O)C(C)C(F)(F)F)C[C@@H]1F` (stereo partly drawn) [Example 1235, 5-[4-amino-5-(trifluoromethyl)pyrrolo[2,1-f][1,2,4]triazin-7-yl]-N-[(3R,4S)-4-fluoro-1-(3,3,3-trifluoro-2-methylpropanoyl)pyrrolidin-3-yl]-2-methylpyridine-3-carboxamide], for which the IC50 was found to be 0.0077 µM.

Take `Nc1ncnn2c(-c3ccc(C(F)(F)F)c(C(=O)N[C@@H]4CN(C(=O)CC(F)(F)F)C[C@@H]4F)c3)cc(C(F)(F)F)c12` [Example 901, 5-[4-amino-5-(trifluoromethyl)pyrrolo[2,1-f][1,2,4]triazin-7-yl]-N-[(3R,4S)-4-fluoro-1-(3,3,3-trifluoropropanoyl)pyrrolidin-3-yl]-2-(trifluoromethyl)benzamide]: the IC50 is 0.141 µM.

As for `COc1ncc(-c2cc(C(F)(F)F)c3c(N)ncnn23)cc1C(=O)N[C@H]1CCN(C(=O)C2CCC(F)(F)C2)C1` (stereo partly drawn) [Example 267, 5-[4-amino-5-(trifluoromethyl)pyrrolo[2,1-f][1,2,4]triazin-7-yl]-N-[(3S)-1-(3,3-difluorocyclopentanecarbonyl)pyrrolidin-3-yl]-2-methoxypyridine-3-carboxamide], the IC50 was found to be 0.185 µM.

Regarding `CC(CC(=O)N1C[C@H](F)[C@H](NC(=O)c2c(F)ccc(-c3cc(C(F)(F)F)c4c(N)ncnn34)c2F)C1)C(F)(F)F` (stereo partly drawn) [Example 728, 3-[4-amino-5-(trifluoromethyl)pyrrolo[2,1-f][1,2,4]triazin-7-yl]-2,6-difluoro-N-[(3R,4S)-4-fluoro-1-(4,4,4-trifluoro-3-methylbutanoyl)pyrrolidin-3-yl]benzamide], the IC50 worked out at 0.059 µM.

With `Cc1nc(C(=O)N2C[C@H](F)[C@H](NC(=O)c3cc(-c4cc(C(F)(F)F)c5c(N)ncnn45)c(F)cc3C)C2)c(C)s1` [Example 840, 5-[4-amino-5-(trifluoromethyl)pyrrolo[2,1-f][1,2,4]triazin-7-yl]-N-[(3R,4S)-1-(2,5-dimethyl-1,3-thiazole-4-carbonyl)-4-fluoropyrrolidin-3-yl]-4-fluoro-2-methylbenzamide], the IC50 is 0.077 µM.

Regarding `COc1ncc(-c2cc(CN3CCC(F)(F)CC3)c3c(N)ncnn23)cc1C(=O)N[C@@H]1CN(C(=O)C2CC2(F)F)C[C@@H]1F` (stereo partly drawn) [Example 1621, 5-{4-amino-5-[(4,4-difluoropiperidin-1-yl)methyl]pyrrolo[2,1-f][1,2,4]triazin-7-yl}-N-[(3R,4S)-1-(2,2-difluorocyclopropanecarbonyl)-4-fluoropyrrolidin-3-yl]-2-methoxypyridine-3-carboxamide], the IC50 is 0.00067 µM.

In the case of `CCCCOC(=O)N1C[C@H](F)[C@H](NC(=O)c2cc(-c3cc(C(F)(F)F)c4c(N)ncnn34)cnc2OC)C1` [Example 1423, butyl (3R,4S)-3-{5-[4-amino-5-(trifluoromethyl)pyrrolo[2,1-f][1,2,4]triazin-7-yl]-2-methoxypyridine-3-amido}-4-fluoropyrrolidine-1-carboxylate], the IC50 was determined as 0.025 µM.

For `COc1cc(C(=O)N[C@@H]2CN(C(=O)CC(C)(O)C(F)(F)F)C[C@@H]2F)cc(-c2cc(C(F)(F)F)c3c(N)ncnn23)c1` (stereo partly drawn) [Example 579, 3-[4-amino-5-(trifluoromethyl)pyrrolo[2,1-f][1,2,4]triazin-7-yl]-N-[(3R,4S)-4-fluoro-1-(4,4,4-trifluoro-3-hydroxy-3-methylbutanoyl)pyrrolidin-3-yl]-5-methoxybenzamide], the IC50 worked out at 0.024 µM.

`Nc1ncnn2c(-c3cc(C(=O)N[C@@H]4CN(C(=O)C5CC(F)(F)C5)C[C@@H]4F)ccc3F)cc(C(F)(F)F)c12` [Example 419, 3-[4-amino-5-(trifluoromethyl)pyrrolo[2,1-f][1,2,4]triazin-7-yl]-N-[(3R,4S)-1-(3,3-difluorocyclobutane-carbonyl)-4-fluoropyrrolidin-3-yl]-4-fluorobenzamide]: the IC50 amounted to 0.019 µM.

As to `CC(C)(C)C(=O)N1C[C@H](F)[C@H](NC(=O)c2cc(F)cc(-c3cc(C(F)(F)F)c4c(N)ncnn34)c2)C1` [Example 604, 3-[4-amino-5-(trifluoromethyl)pyrrolo[2,1-f][1,2,4]triazin-7-yl]-N-[(3R,4S)-1-(2,2-dimethylpropanoyl)-4-fluoropyrrolidin-3-yl]-5-fluorobenzamide], the IC50 came to 0.029 µM.

For the compound `Cc1ccc(-c2cc(C(F)(F)F)c3c(N)ncnn23)cc1C(=O)Nc1cn(Cc2ccc(C(F)(F)F)cc2)cn1` [Example 1806, 5-(4-amino-5-(trifluoromethyl)pyrrolo[2,1-f][1,2,4]triazin-7-yl)-2-methyl-N-(1-(4-(trifluoromethyl)benzyl)-1H-imidazol-4-yl)benzamide], the IC50 amounted to 0.0022 µM.

`CCc1ccc(-c2cc(C(F)(F)F)c3c(N)ncnn23)cc1C(=O)N[C@@H]1CN(C(=O)CC(C)(O)C(F)(F)F)C[C@@H]1F` (stereo partly drawn) [Example 975, 5-[4-amino-5-(trifluoromethyl)pyrrolo[2,1-f][1,2,4]triazin-7-yl]-2-ethyl-N-[(3R,4S)-4-fluoro-1-(4,4,4-trifluoro-3-hydroxy-3-methylbutanoyl)pyrrolidin-3-yl]benzamide]: the IC50 is 0.0081 µM.

Turning to `Cc1cc(F)c(-c2cc(C(F)(F)F)c3c(N)ncnn23)cc1C(=O)N[C@@H]1CN(C(=O)c2cccc(C(F)(F)F)n2)C[C@@H]1F` [Example 848, 5-[4-amino-5-(trifluoromethyl)pyrrolo[2,1-f][1,2,4]triazin-7-yl]-4-fluoro-N-[(3R,4S)-4-fluoro-1-[6-(trifluoromethyl)pyridine-2-carbonyl]pyrrolidin-3-yl]-2-methylbenzamide], the IC50 was found to be 0.272 µM.

Turning to `Nc1ncnn2c(-c3cccc(C(=O)N4CCC[C@@H](Cc5ccc(F)cc5)C4)c3)cc(C(F)(F)F)c12` [Example 82, 7-{3-[(3S)-3-[(4-fluorophenyl)methyl]piperidine-1-carbonyl]phenyl}-5-(trifluoromethyl)pyrrolo[2,1-f][1,2,4]triazin-4-amine], the IC50 stood at 0.045 µM.

Take `CNc1ncc(-c2cc(C(F)(F)F)c3c(N)ncnn23)cc1C(=O)NCC[C@H](O)c1ccc(Cl)cc1` [Example 30, 5-[4-amino-5-(trifluoromethyl)pyrrolo[2,1-f][1,2,4]triazin-7-yl]-N-[(3S)-3-(4-chlorophenyl)-3-hydroxypropyl]-2-(methylamino)pyridine-3-carboxamide]: the IC50 turned out to be 0.013 µM.

For `COc1ncc(-c2cc(Cl)c3c(N)ncnn23)cc1C(=O)N[C@@H]1CN(C(=O)[C@@](C)(O)C(F)(F)F)C[C@@H]1F` [Example 1594, 5-{4-amino-5-chloropyrrolo[2,1-f][1,2,4]triazin-7-yl}-N-[(3R,4S)-4-fluoro-1-[(2R)-3,3,3-trifluoro-2-hydroxy-2-methylpropanoyl]pyrrolidin-3-yl]-2-methoxypyridine-3-carboxamide], the IC50 is 0.0061 µM.

For the compound `COc1ncc(-c2cc(C(F)(F)F)c3c(N)ncnn23)cc1C(=O)N[C@@H]1CN(C(=O)C2CCCCO2)C[C@@H]1F` (stereo partly drawn) [Example 326, 5-[4-amino-5-(trifluoromethyl)pyrrolo[2,1-f][1,2,4]triazin-7-yl]-N-[(3R,4S)-4-fluoro-1-(oxane-2-carbonyl)pyrrolidin-3-yl]-2-methoxypyridine-3-carboxamide], the IC50 turned out to be 0.112 µM.

In the case of `CC(C)CC(=O)N1C[C@H](F)[C@H](NC(=O)c2c(F)ccc(-c3cc(C(F)(F)F)c4c(N)ncnn34)c2F)C1` [Example 719, 3-[4-amino-5-(trifluoromethyl)pyrrolo[2,1-f][1,2,4]triazin-7-yl]-2,6-difluoro-N-[(3R,4S)-4-fluoro-1-(3-methylbutanoyl)pyrrolidin-3-yl]benzamide], the IC50 came to 0.122 µM.

In the case of `COc1ncc(-c2cc(C(F)(F)F)c3c(N)ncnn23)cc1C(=O)N[C@@H]1CN(C(=O)c2cnc(Cl)s2)C[C@@H]1F` [Example 1667, 5-(4-amino-5-(trifluoromethyl)pyrrolo[2,1-f][1,2,4]triazin-7-yl)-N-((3R,4S)-1-(2-chlorothiazole-5-carbonyl)-4-fluoropyrrolidin-3-yl)-2-methoxynicotinamide], the IC50 was 0.073 µM.

For `Cc1ncc(-c2cc(C(F)(F)F)c3c(N)ncnn23)cc1C(=O)N[C@@H]1CN(C(=O)CC(C)C)C[C@@H]1F` [Example 364, 5-[4-amino-5-(trifluoromethyl)pyrrolo [2,1-f][1,2,4]triazin-7-yl]-N-[(3R,4S)-4-fluoro-1-(3-methylbutanoyl)pyrrolidin-3-yl]-2-methylpyridine-3-carboxamide, TFA], the IC50 worked out at 0.01 µM.

As for `COc1ncc(-c2cc(C(F)(F)F)c3c(N)ncnn23)cc1C(=O)N[C@@H]1CN(C(=O)OCC2CCC2)C[C@@H]1F` [Example 1431, cyclobutylmethyl (3R,4S)-3-{5-[4-amino-5-(trifluoromethyl)pyrrolo[2,1-f][1,2,4]triazin-7-yl]-2-methoxypyridine-3-amido}-4-fluoropyrrolidine-1-carboxylate], the IC50 stood at 0.0055 µM.

With `Nc1ncnn2c(-c3cccc(C(=O)N[C@@H]4CN(C(=O)c5ccc(F)cc5)C[C@@H]4F)c3)cc(C(F)(F)F)c12` [Example 104, 3-[4-amino-5-(trifluoromethyl)pyrrolo[2,1-f][1,2,4]triazin-7-yl]-N-[(3R,4S)-4-fluoro-1-(4-fluorobenzoyl)pyrrolidin-3-yl]benzamide], the IC50 was 0.045 µM.

As for `Nc1ncnn2c(-c3cc(C(=O)N[C@@H]4CN(C(=O)c5ccccc5F)C[C@@H]4F)c(Cl)cc3F)cc(C(F)(F)F)c12` [Example 399, 5-[4-amino-5-(trifluoromethyl)pyrrolo[2,1-f][1,2,4]triazin-7-yl]-2-chloro-4-fluoro-N-[(3R,4S)-4-fluoro-1-(2-fluorobenzoyl)pyrrolidin-3-yl]benzamide], the IC50 stood at 0.025 µM.

As to `Nc1ncnn2c(-c3cc(F)cc(C(=O)N[C@@H]4CN(C(=O)c5ccc(F)cc5)C[C@@H]4F)c3)cc(C(F)(F)F)c12` [Example 606, 3-[4-amino-5-(trifluoromethyl)pyrrolo[2,1-f][1,2,4]triazin-7-yl]-5-fluoro-N-[(3R,4S)-4-fluoro-1-(4-fluorobenzoyl)pyrrolidin-3-yl]benzamide], the IC50 was 0.022 µM.
